# Test results: PubChem BioAssay AID1508623 (National Center for Advancing Translational Sciences (NCATS), 2021)
# Screen size: about 48,000 compounds; about 450 (0.94%) were called active. Another 19% or so got no clear call; they are omitted. Calls come from the whole dose curve; as a rule, active = well fitted inhibition curve with a large enough effect; inconclusive = small, poorly fitted or top-dose-only effect; inactive = no such curve, though single readings can be large or run the other way. The list shows a part of the results.
# Test: Primary qHTS for Identification of Small Molecule Inhibitors of Huntingtin Promoter Activity; note: nearly all actives have a fitted effect of over 50% in size
# Details: HEK293 HTT promoter firefly luciferase reporter (activity 0% = vehicle and -100% = no light), 24 h; series mostly up to 57.5 µM; activity change, negative = inhibition: at the top concentration
# Method in brief: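 Firefly luciferase signal from promoter-reporter HEK293 cells was scaled between vehicle (0%) and zero RLU (-100%). Compounds were tested at final concentrations of up to 57.5 uM over 24 h at 37 degrees C. PTC124 at 50 uM final served as control inhibitor.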
# Potency is the fitted concentration of half-maximal effect.
SMILES,"activity change, negative = inhibition",Potency
CCOC(=O)c1sc(NC(=O)C(C)Oc2ccc(OC)cc2)c(C(=O)OCC)c1C (configuration not stated),inactive: 3.44%,–
COc1ccc(C(=O)Nc2cc(-c3ccccc3)nn2-c2ccccc2)cc1,inactive: -25%,–
CCOC(=O)c1cccc(NC(=O)c2cc3cc4cc(OC)ccc4nc3s2)c1,inactive: 7.68%,–
COc1ccc(C)cc1NC(=O)CN1C(=O)COc2ccc(S(=O)(=O)N3CCOCC3)cc21,inactive: 6.12%,–
O=C(COCc1cc(-c2cccs2)on1)Nc1cc(Cl)ccc1O,inactive: -22.2%,–
Cc1nc(-c2ccc(OCC(C)C)c(C#N)c2)sc1C(=O)O,–,active: 5.01 µM
CCOc1ccccc1NC(=O)Cn1c(=O)oc2cc(S(=O)(=O)NCc3ccccc3)ccc21,inactive: -29.1%,–
COC(=O)C1=C(C)NC(=O)C1(NC(=O)c1ccc(Cl)cc1)C(F)(F)F (configuration not stated),inactive: -9.03%,–
CCN1CCC(N(Cc2cccc(OC)c2)C(=O)Nc2cccc(C)c2C)CC1,inactive: -12.3%,–
CC1=Nc2cc(C(=O)NCc3ccc(C)cc3)ccc2Sc2ccc(Cl)cc21,inactive: -15.5%,–
O=C(CSc1nc2c([nH]c3ccccc32)c(=O)n1-c1ccc(Cl)cc1)NC1CCCCC1,inactive: -31.7%,–
CCc1ccc(NC(=O)N2CCN(Cc3nc4ccc(C)cc4o3)CC2)cc1,inactive: -38.3%,–
CCN(CC)C(=O)CN1C(=O)COc2ccc(S(=O)(=O)N3CCOCC3)cc21,inactive: -15%,–
CC(=O)[C@H]1CC[C@H]2[C@@H]3CC=C4C[C@@H](O)CC[C@]4(C)[C@H]3CC[C@]12C,inactive,–
COc1ccc(CC2c3cc(OC)c(OC)cc3CC[N+]2(C)CCC(=O)OCCCCCOC(=O)CC[N+]2(C)CCc3cc(OC)c(OC)cc3C2Cc2ccc(OC)c(OC)c2)cc1OC (configuration not stated),inactive: 2.14% [at 11.5 µM],–
COc1ccc(NC(=O)Cn2nnc(C(=O)NCc3ccco3)c2N)c(OC)c1,inactive: -14.5%,–
Cc1cc(Nc2cccc(Br)c2)n2c(nc3ccccc32)c1C#N,inactive: -15%,–
Cc1ccc(N2CCN(C(=O)c3cn(C)c4ccc(S(=O)(=O)N5CCCC5)cc4c3=O)CC2C)cc1 (configuration not stated),inactive: -5.29%,–
CCOc1ccc(NC(=O)CN2C(=O)c3ccccc3Sc3ccc(C(=O)OC)cc32)cc1,inactive: -23.1%,–
Cc1cc(C)cc(-n2c(SCC(=O)NCc3ccc(F)cc3)nc3c([nH]c4ccccc43)c2=O)c1,inactive: -10.8%,–
COc1cc(NC(=O)CSc2nc(-c3ccccc3)no2)cc(OC)c1,inactive: -18%,–
COC(=O)c1sc(-c2ccccc2)cc1NC(=O)c1cccc(Cl)c1,inactive: 8.71%,–
O=C(Nc1nc(-c2ccccc2)ns1)c1ccc(Cl)cc1,inactive: -21.8%,–
CCOC(=O)N1CCc2c(sc(NCc3cccs3)c2C(=O)Nc2cc(Cl)ccc2OC)C1,inactive: -4.57%,–

SMILES,"activity change, negative = inhibition",Potency
CCN(CC)c1ccc(NC(=O)C2CCN(S(=O)(=O)c3ccc4c(c3)oc(=O)n4C)CC2)c(C)c1,inactive: -18.7%,–
CC(C(=O)O)c1ccc2c(c1)CC(=O)c1ccccc1S2 (configuration not stated),inactive,–
Cc1cccc(NC(=O)C(NS(=O)(=O)c2cccc3nsnc23)c2ccccc2)c1C (configuration not stated),inactive: -15.3%,–
COc1ccc(CN(C(=O)c2cc(=O)c3ccccc3o2)C2CCS(=O)(=O)C2)cc1OC (configuration not stated),inactive: -17.9%,–
COc1ccc(N2CCN(S(=O)(=O)c3cc(Br)cc4c3N(C(=O)C3CC3)CC4)CC2)cc1,inactive: -10.1%,–
CC(C)(C)OC(=O)N1CCC(c2c(C(=O)N3CCN(c4ccccn4)CC3)cnn2-c2cccc(F)c2)CC1,inactive: 1.59%,–
Cc1ccc(NC(=O)Cn2c(=O)n(Cc3ccco3)c(=O)c3sc4ccccc4c32)c(C)c1,inactive: -12.3%,–
Cc1ccc(C(=O)NCC(c2ccco2)S(=O)(=O)c2ccccc2)cc1C (configuration not stated),inactive: -14.9%,–
CCOC(=O)c1c(C)c(-c2ccccc2)n(CC(=O)NCc2ccccc2)c1C,inactive: -3.16%,–
O=C(CSc1nccn1Cc1ccccc1)Nc1nc2ccccc2s1,inactive: 26.2%,–
COc1ccc(OC)c(NC(=O)COCc2cc(-c3ccco3)on2)c1,inactive: -6.42%,–
Cc1cc(C)c(Cn2c(=O)n(Cc3ccccc3)c(=O)c3c(C)c(C)sc32)c(C)c1,inactive: 1.09%,–
O=C(Nc1cccc(C(F)(F)F)c1)c1cc2nc(-c3ccco3)cc(C(F)(F)Cl)n2n1,inactive: -1.02%,–
Cc1ccc(S(=O)(=O)c2nnn(CC(=O)Nc3ccccc3C)c2N)cc1,inactive: -8.98%,–
COc1ccc(-n2nc(C(=O)N3CCCCC3)c3c4ccccc4n(C)c3c2=O)cc1Cl,inactive: -4.9%,–
Cc1ccc(Cl)cc1NC(=O)CCn1cnc2ccccc2c1=O,inactive: -19.5%,–
CCOC(=O)c1ccc(NC(=O)C2=C(C)C(=O)OC23CCN(C(C)=O)CC3)cc1,inactive: -1.63%,–
COc1cc(Nc2nc3ccc(Cl)cc3nc2-n2nc(C)cc2C)cc(OC)c1,inactive: 0.182%,–
O=C(CN1C(=O)COc2ccc(S(=O)(=O)NC3CCCC3)cc21)NCc1ccccc1Cl,inactive: -2.81%,–
Cn1ncc2c(Nc3cccc(C#N)c3)ncnc21,inactive: 31%,–
Cc1cc(C)cc(NC(=O)C(=O)NCC(c2cccnc2)N2CCOCC2)c1 (configuration not stated),inactive: -30.2%,–
Cc1nc(Nc2ncc(C(=O)Nc3c(C)cccc3Cl)s2)cc(N2CCN(CCO)CC2)n1,inactive: -30.7%,–
CC(=O)OCC(=O)[C@@]1(O)CC[C@H]2[C@@H]3CCC4=CC(=O)CC[C@]4(C)[C@@H]3C(=O)C[C@@]21C,inactive: -4.83%,–
